Target: T1, NIH3T3 cells stably expressing LRAT and RPE65 (Homo sapiens, UniProt Q16518)
T1 sequence (Q16518 1-533): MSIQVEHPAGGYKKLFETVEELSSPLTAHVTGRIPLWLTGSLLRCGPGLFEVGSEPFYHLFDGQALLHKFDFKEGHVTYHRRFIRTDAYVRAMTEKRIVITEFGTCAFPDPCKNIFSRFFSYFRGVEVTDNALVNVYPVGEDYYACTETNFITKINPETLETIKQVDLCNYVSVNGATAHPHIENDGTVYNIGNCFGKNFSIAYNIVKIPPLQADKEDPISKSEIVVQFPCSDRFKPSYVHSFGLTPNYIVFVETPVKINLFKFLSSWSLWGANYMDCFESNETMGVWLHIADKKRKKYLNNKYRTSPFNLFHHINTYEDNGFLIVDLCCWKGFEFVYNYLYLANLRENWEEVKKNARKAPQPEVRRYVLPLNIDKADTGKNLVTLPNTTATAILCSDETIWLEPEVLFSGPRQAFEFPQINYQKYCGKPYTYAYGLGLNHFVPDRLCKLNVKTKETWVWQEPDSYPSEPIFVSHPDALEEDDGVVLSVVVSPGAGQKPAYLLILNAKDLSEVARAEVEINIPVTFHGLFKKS
Test: NIH3T3 cell assay of 11-cis-retinol production
Assay type: cell-based
Experimental: The cells were plated in 6-well plates using Dulbecco's Modified Eagle Medium (DMEM) and allowed to grow to 90% confluency. The cells were then incubated with DMEM containing 10 μM all-trans-retinol and 4.5 μM retinylamine, or derivatives for 16 hours under dark room conditions. Control groups included a positive control (all-trans-retinol only) and a negative control (no treatment). Cells and medium were collected after 16 hours of incubation. Samples were treated with 2 ml of methanol, homogenized, and saponified with 1 M KOH at 37° C. for 2 hours prior to extraction with hexane. The resulting hexane phase was collected, dried using a SpeedVac, and redissolved in 250 μl of hexane, and retinoid composition was determined by normal phase HPLC.

[1] = 10 μM all-trans-retinol and 4.5 μM drug, 16 h

SMILES	inhibition of 11-cis-retinol production [1]	inhibition of 11-cis-retinol production (growth medium supplemented with 3 μM Ret-NH2)
CC1=C(/C=C/C(C)=C/C=C/C(C)=C/CNC(=O)[C@@H](N)Cc2ccccc2)C(C)(C)CCC1 [RF, (S)-2-amino-N-((2E,4E,6E,8E)-3,7-dimethyl-9-(2,6,6-trimethylcyclohex-1-en-1-yl)nona-2,4,6,8-tetraen-1-yl)-3-phenylpropanamide]	partial inhibition of 11-cis-retinol production	
CC1=C(/C=C/C(C)=C/C=C/C(C)=C/CN)C(C)(C)CCC1 [Ret-NH2, (2E,4E,6E,8E)-3,7-dimethyl-9-(2,6,6-trimethylcyclohex-1-en-1-yl)nona-2,4,6,8-tetraen-1-amine, reference compound]	inhibited isomerase activity and 11-cis-retinol production	nearly complete inhibition of 11-cis-retinol production
